# Laboratory results published in the supplement of paper PMC4166925.
# ± gives the standard deviation of the averaged measurements. The full ranking holds about 33,000 sequences; the median of “E-score (dimensionless, -0.5 to 0.5)” is about -0.046, and the highest 2% start at about 0.36. The list shows a part of the results.
# Test system: T1, SpTbr T-box DNA-binding domain (GST fusion)
# T1 sequence: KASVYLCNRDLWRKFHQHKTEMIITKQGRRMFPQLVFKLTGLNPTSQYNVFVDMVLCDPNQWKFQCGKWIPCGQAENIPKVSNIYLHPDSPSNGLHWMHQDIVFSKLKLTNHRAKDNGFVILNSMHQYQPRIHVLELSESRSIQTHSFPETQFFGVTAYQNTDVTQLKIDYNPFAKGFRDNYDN
# Test: PBM E-score of 8-mer (E-score (dimensionless, -0.5 to 0.5)); Tbr is Tbrain of the sea star Patiria miniata (Pm) or the sea urchin Strongylocentrotus purpuratus (Sp); higher = stronger binding preference; most listed sequences are background and not binding sites
# Conditions: the construct has about 5 more residues each side
# Outline: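 Universal Agilent oligonucleotide arrays, made double-stranded by primer extension, were incubated with 200 nM GST-fused Tbr T-box DNA-binding domain in PBS (pH 7.5). The protein was expressed in BL21 E. coli at 20 °C and purified by glutathione affinity chromatography. After scanning and quantification, the Universal PBM Analysis Suite assigned an enrichment E-score to each ungapped 8-mer, averaged over duplicate arrays.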
row,Sequence,PBM E-score of 8-mer
1,CCCTACGA,-0.0943 ± 0.036
2,CATGTGTC,0.3458 ± 0.0021
3,CCCAGAGA,-0.125 ± 0.058
4,AATATACC,0.0406 ± 0.0038
5,ACCATACC,-0.262 ± 0.027
6,ACTCCTAC,-0.128 ± 0.01
7,AGACTCGG,-0.23 ± 0.019
8,CTGCCCAC,0.123 ± 0.0056
9,GCATAAGC,-0.0661 ± 0.023
10,CAACATTA,-0.127 ± 0.022
11,ATACCAAG,-0.00145 ± 0.017
12,ACGTCGAC,0.0807 ± 0.016
13,ACCACTCT,-0.04686 ± 0.00032
14,TGCGAGAA,0.36401 ± 0.00027
15,CCTACTAA,-0.0157 ± 0.06
16,ACTTATCG,0.0951 ± 0.025
17,CCGGTTCC,-0.27 ± 0.0077
18,CGAGCCCG,-0.0449 ± 0.0048
19,CCGTGGAA,0.024 ± 0.04
20,CCTGGCAG,-0.0627 ± 0.0057
21,CCCTAACC,-0.113 ± 0.029
22,TATGCTGA,-0.169 ± 0.036
23,ACTGCAAA,0.0982 ± 0.0092
24,CATAAGAG,-0.286 ± 0.003
25,AGAAGCTC,-0.0389 ± 0.0014

row,Sequence,PBM E-score of 8-mer
1,AACGGTGG,-0.1376 ± 0.00095
2,AGAGAGGG,-0.157 ± 0.078
3,CATGCAGC,-0.0608 ± 0.074
4,GGAGTGCC,0.0103 ± 0.042
5,AAAGCTGC,0.0991 ± 0.073
6,ACCGGGCA,-0.248 ± 0.025
7,ATGCCTCG,-0.0593 ± 0.14
8,ATCTTCCC,-0.105 ± 0.012
9,CCAAGATC,-0.0932 ± 0.01
10,GTCAATCA,-0.00127 ± 0.013
11,AAATGTCT,-0.1219 ± 0.00025
12,AATGAGCC,-0.11 ± 0.0038
13,GCCCGACA,0.229 ± 0.022
14,CGCGTCCG,0.0707 ± 0.085
15,ACGATGAC,0.105 ± 0.041
16,AACCGATG,-0.0787 ± 0.073
17,ACTGCACG,-0.0519 ± 0.037
18,CGCTCGTC,-0.222 ± 0.041
19,ACGTTTCC,-0.0163 ± 0.073
20,CGTCCGCA,0.139 ± 0.042
21,GATGATTA,0.153 ± 0.019
22,CGCTCCAA,0.01 ± 0.055
23,GTTCTAAA,-0.334 ± 0.035
24,CGGAGTTA,-0.132 ± 0.0015
25,TCGAGGAA,-0.188 ± 0.093

row,Sequence,PBM E-score of 8-mer
1,CCCCGAGA,-0.156 ± 0.034
2,AACACTTG,0.3953 ± 0.0019
3,GCCTACAA,0.0391 ± 0.063
4,CACACTTA,0.447 ± 0.0064
5,GAGGAGTA,0.16 ± 0.02
6,GCAACGTA,-0.134 ± 0.068
7,AGTGGCTG,-0.0229 ± 0.054
8,AGGCCTGA,-0.2517 ± 0.0013
9,ATCGAATG,-0.134 ± 0.046
10,CTATGTAA,-0.0688 ± 0.047
11,CGATCCAA,0.0542 ± 0.051
12,AGCACTAT,0.108 ± 0.084
13,CTAAAAGA,-0.201 ± 0.022
14,AATAACGC,0.052 ± 0.13
15,TATATTGA,-0.0827 ± 0.014
16,ACAACATC,0.146 ± 0.015
17,ATCCGATC,-0.123 ± 0.052
18,GCTTATCA,0.0701 ± 0.045
19,AGTCTATC,-0.154 ± 0.051
20,CCCTTAAG,0.0237 ± 0.053
21,GGTGAACC,0.0507 ± 0.064
22,CTCGTGGC,-0.114 ± 0.04
23,CCCCGATA,-0.122 ± 0.016
24,AACGGCCT,-0.096 ± 0.055
25,CCTAAGTA,-0.121 ± 0.035

row,Sequence,PBM E-score of 8-mer
1,AGTTAGAA,-0.032 ± 0.097
2,CCGGTGTA,0.115 ± 0.037
3,ACTCGTAC,-0.0977 ± 0.07
4,GGCTAACA,0.235 ± 0.024
5,ATACCGAC,0.00424 ± 0.047
6,CCAACTGG,-0.139 ± 0.044
7,ATTAACTA,-0.0755 ± 0.079
8,ATATACCA,0.00106 ± 0.052
9,ATTAATGG,-0.0591 ± 0.094
10,GCTGAGTA,-0.228 ± 0.011
11,TAGGTGGA,0.206 ± 0.028
12,CCATATAG,-0.322 ± 0.076
13,GGATCATA,-0.163 ± 0.096
14,AAATATAC,-0.251 ± 0.023
15,CGACCAAA,-0.195 ± 0.011
16,CGTATGGA,-0.161 ± 0.0036
17,AACTAGTT,0.0697 ± 0.073
18,GTTCTCCA,-0.198 ± 0.076
19,CAAACGCC,-0.0351 ± 0.013
20,CAGACGAC,-0.0662 ± 0.051
21,ACGTTAGA,-0.0851 ± 0.017
22,AAGTCACA,0.265 ± 0.015
23,CGCCGTTA,0.0601 ± 0.004
24,GGTTCCCA,0.0138 ± 0.028
25,GGAATGAC,-0.0205 ± 0.025

row,Sequence,PBM E-score of 8-mer
1,ATAACCAC,-0.138 ± 0.015
2,GTCACGAC,0.188 ± 0.034
3,CCCAACAG,-0.00133 ± 0.037
4,AAATCAGT,-0.139 ± 0.019
5,ATTGGAGC,-0.119 ± 0.03
6,GAACAGGA,-0.0932 ± 0.027
7,AGTGATAC,0.174 ± 0.015
8,ATGTCTAA,-0.129 ± 0.078
9,CCTCCACA,0.176 ± 0.039
10,CAAGTTGC,0.2707 ± 0.0024
11,GTGCCTTA,-0.141 ± 0.041
12,AGTACCTC,-0.0654 ± 0.08
13,GTTTAACA,0.259 ± 0.059
14,GGCTTCCC,-0.0838 ± 0.065
15,AGGTCGAT,0.058 ± 0.02
16,GATACGAC,0.135 ± 0.0063
17,ACTCTTAG,-0.106 ± 0.0089
18,GATCTCCA,-0.0351 ± 0.043
19,ATCCGCCA,-0.155 ± 0.022
20,GATATCGA,0.0185 ± 0.025
21,GAACCAAC,0.0827 ± 0.051
22,ACGTTCAT,-0.101 ± 0.02
23,AAGAATCT,-0.109 ± 0.042
24,GACACCCA,0.374 ± 0.032
25,GGGCCAGA,-0.323 ± 0.047

row,Sequence,PBM E-score of 8-mer
1,AAACCGTC,0.0955 ± 0.014
2,ACGTAAAC,0.0232 ± 0.047
3,TACTTCGA,-0.0694 ± 0.013
4,AATGCTAT,-0.0321 ± 0.071
5,GGGCTAGA,-0.17 ± 0.012
6,ACTCCTCC,0.116 ± 0.0039
7,TCGAAAAA,-0.0371 ± 0.08
8,AGGCATGA,-0.156 ± 0.016
9,AAGCCTCA,-0.084 ± 0.059
10,TCTCCTAA,-0.171 ± 0.012
11,GGTTCCAA,-0.206 ± 0.069
12,ACAACTAG,-0.0892 ± 0.11
13,AACAGCGC,0.143 ± 0.006
14,GGGATAAC,0.0528 ± 0.052
15,AATAGGCT,-0.176 ± 0.032
16,AAGACCCG,0.016 ± 0.079
17,CAAATGCC,-0.0761 ± 0.015
18,CCGAGCGA,-0.173 ± 0.081
19,CAGCGCCC,0.0237 ± 0.035
20,CTAATTGC,-0.123 ± 0.028
21,GTCGGCAA,0.0712 ± 0.012
22,CCTGTTGC,0.0625 ± 0.07
23,GGGTCTCA,0.08 ± 0.017
24,AGCTGCAA,0.123 ± 0.033
25,ACCGACTA,-0.18161 ± 9.9e-05

row,Sequence,PBM E-score of 8-mer
1,CGATTTGA,0.0256 ± 0.01
2,GACCCCGA,-0.173 ± 0.09
3,GGGTGGAC,-0.0836 ± 0.044
4,GAACTCCC,-0.0829 ± 0.0089
5,GGGCCTCA,-0.104 ± 0.044
6,GGAGCTTA,-0.192 ± 0.031
7,ACTTTATC,0.0371 ± 0.019
8,AATAGGTC,-0.154 ± 0.017
9,ACCGATTA,-0.00785 ± 0.032
10,CCTCCGAA,-0.0722 ± 0.014
11,GAACAGGC,-0.114 ± 0.02
12,AATAGCGA,0.258 ± 0.026
13,AAACCACT,-0.258 ± 0.016
14,GCCCGGAC,-0.183 ± 0.039
15,CTGATTGA,-0.0408 ± 0.029
16,ACTCGCTA,0.255 ± 0.025
17,AATACCTG,-0.0292 ± 0.072
18,GCACTTCC,0.326 ± 0.017
19,ATTCCCAC,0.225 ± 0.019
20,AATGAGGC,-0.187 ± 0.087
21,GCAATCAC,0.176 ± 0.029
22,TAGGCAAA,-0.0674 ± 0.095
